# Among all 39,000 compounds or so, about 220 (0.56%) showed activity. This is one part of the list.
# System: Escherichia coli K-12 BW25113
# Experiment: relative growth (OD600 normalised to plate interquartile mean) (fraction); higher = less growth inhibition, active = 0.2 or less
# Conditions: 50 µM; LB; incubation time: overnight (16-24 h)
# 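Note: static incubation at 37 °C against the wild-type strain, values averaged over two biological replicates.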
row,Structure (SMILES),relative growth
1,O=C(O)C1(c2ccccc2)CCCC1,inactive: 1
2,CN(C)CC(=O)N[C@H]1CC[C@H](CCNC(=O)C2CC2)O[C@H]1CO,inactive: 0.99
3,C[C@@H]1CN([C@@H](C)CO)C(=O)c2cc(C#CC3(O)CCCC3)cnc2O[C@H]1CN(C)C(=O)Cc1cccnc1,inactive: 0.975
4,C[C@H](O)C#Cc1cnc2c(c1)C(=O)N([C@@H](C)CO)C[C@@H](C)[C@H](CN(C)C(=O)CN1CCOCC1)O2,inactive: 0.97
5,Cc1noc(C)c1NC(=O)Nc1cccc2c1O[C@H](CN(C)C(=O)Nc1ccc(C(F)(F)F)cc1)[C@@H](C)CN([C@@H](C)CO)C2=O,inactive: 0.944
6,C[C@@H]1CN([C@H](C)CO)C(=O)c2cc(NC(=O)CCCCCC(=O)Nc3ccccc3N)ccc2O[C@H]1CN(C)Cc1ccc(-c2ccccc2)cc1,inactive: 1.03
7,COc1ccc(NC(=O)Nc2cccc3c2O[C@H](CN(C)S(=O)(=O)c2cn(C)cn2)[C@H](C)CN([C@H](C)CO)C3=O)cc1,inactive: 1
8,C[C@H](CO)N1C[C@H](C)[C@@H](CN(C)C(=O)C2CCOCC2)Oc2ncc(-c3cccc(C#N)c3)cc2C1=O,inactive: 1.02
9,CCCCC1=NC2(CCCC2)C(=O)N1Cc1ccc(-c2ccccc2-c2nnn[nH]2)cc1,inactive: 1.04
10,CC(C)NCC(O)c1ccc(NS(C)(=O)=O)cc1.Cl (stereo not drawn),inactive: 0.927
11,CC(C)COC(=O)OCN1C(=O)CN(CCN2CC(=O)N(COC(=O)OCC(C)C)C(=O)C2)CC1=O,inactive: 0.985
12,C[C@@H]1CN([C@H](C)CO)C(=O)c2cc(NC(=O)c3ccccc3)ccc2O[C@@H](C)CCCCO[C@H]1CN(C)Cc1ccccc1,inactive: 1
13,CCCC#Cc1ccc2c(c1)O[C@@H](CN(C)S(=O)(=O)c1cccc(F)c1)[C@@H](C)CN([C@@H](C)CO)S2(=O)=O,inactive: 0.995
14,C[C@H]1CN([C@@H](C)CO)C(=O)Cc2cc(NC(=O)c3ccncc3)ccc2O[C@H]1CN(C)Cc1ccncc1,inactive: 0.993
15,Cc1noc(C)c1NC(=O)Nc1ccc2c(c1)C(=O)N([C@@H](C)CO)C[C@@H](C)[C@H](CN(C)Cc1ccc(C(F)(F)F)cc1)OCCCC[C@@H](C)O2,inactive: 1.02
16,C[C@@H]1CCCCO[C@H](CN(C)Cc2ccc3c(c2)OCO3)[C@@H](C)CN([C@@H](C)CO)C(=O)c2cc(NC(=O)Nc3ccccc3)ccc2O1,inactive: 0.99
17,O=C(C[C@H]1CC[C@@H]2[C@H](COC[C@H](O)CN2C(=O)c2ccc3c(c2)OCO3)O1)NC1Cc2ccccc2C1,inactive: 0.962
18,NC(=O)Cc1cccc(C(=O)c2ccccc2)c1N,inactive: 1.08
19,O=C(C[C@@H]1CC[C@H]2[C@@H](COC[C@@H](O)CN2C(=O)c2cnccn2)O1)N1CCN(c2ccccc2)CC1,inactive: 1
20,Cc1ccc(-c2ccc3c(c2)O[C@@H](CN(C)C(=O)CN(C)C)[C@H](C)CN([C@H](C)CO)S3(=O)=O)cc1,inactive: 0.992
21,C=CC1=C(C(=O)O)N2C(=O)C(NC(=O)C(=NOCC(=O)O)c3csc(N)n3)C2SC1 (stereo not drawn),inactive: 1.01

row,Structure (SMILES),relative growth
1,Nc1ncnc2c1ncn2[C@@H]1O[C@H](CO)C[C@H]1O,inactive: 1
2,CNC(=O)c1ccc(OC(C)=O)cc1,inactive: 1.01
3,Cc1ccc(S(=O)(=O)Nc2ccc3c(c2)CC(=O)N([C@H](C)CO)C[C@H](C)[C@@H](CN(C)Cc2ccc(-c4ccccc4)cc2)O3)cc1,inactive: 1.02
4,COc1cccc2c1C(=O)c1c(O)c3c(c(O)c1C2=O)C[C@@](O)(C(=O)CO)C[C@@H]3O[C@H]1C[C@H](N)[C@H](O)[C@H](C)O1,inactive: 0.93
5,CCCNC(=O)N1C[C@H](C)[C@H](OC)CN(C)C(=O)c2cc(NS(=O)(=O)CC(F)(F)F)ccc2OC[C@@H]1C,inactive: 0.966
6,Cc1ccc(S(=O)(=O)N2C[C@H](O)COC[C@H]3O[C@H](CC(=O)N[C@H]4CCN(Cc5ccccc5)C4)CC[C@@H]32)cc1,inactive: 1.01
7,COc1ccc(S(=O)(=O)N(C)C[C@@H]2OCCCC[C@@H](C)Oc3ccc(NS(C)(=O)=O)cc3C(=O)N([C@H](C)CO)C[C@@H]2C)cc1,inactive: 0.999
8,COc1ccc(S(=O)(=O)N(C)C[C@H]2Oc3ccc(NS(=O)(=O)c4ccc(F)cc4)cc3CC(=O)N([C@@H](C)CO)C[C@H]2C)cc1,inactive: 1.06
9,CC(C)CNC(=O)C(=O)NCc1ccccn1,inactive: 0.947
10,C[C@@H]1CN([C@H](C)CO)C(=O)CCCn2nncc2CO[C@@H]1CN(C)C(=O)CCCN(C)C,inactive: 0.987
11,O=C(CN1CCOCC1)N[C@@H]1CC[C@H](CCNC(=O)C2CCCCC2)O[C@@H]1CO,inactive: 0.994
12,C=CCN(C(=O)[C@H]1N(c2ccc(CCO)cc2)C(=O)[C@H]2[C@H](C(=O)O)[C@@H]3C=C[C@@]21O3)c1ccc(OC)cc1,inactive: 1.04
13,C[C@H](CO)N1C[C@H](C)[C@H](CN(C)Cc2ccc(Cl)c(Cl)c2)Oc2ccc(NS(=O)(=O)c3ccc(F)cc3)cc2CC1=O,inactive: 0.989
14,CC(C)NC(=O)Nc1ccc2c(c1)C(=O)N([C@H](C)CO)C[C@@H](C)[C@@H](CN(C)Cc1ccc(C(=O)O)cc1)O2,inactive: 1.01
15,Cc1noc(C)c1S(=O)(=O)N(C)C[C@H]1Oc2ccc(NS(C)(=O)=O)cc2C(=O)N([C@H](C)CO)C[C@H]1C,inactive: 0.977
16,CC(=O)NC(CS)C(=O)O (stereo not drawn),inactive: 1.09
17,COc1ccc(CN(C)C[C@H]2OCCCC[C@@H](C)Oc3ccc(NC(=O)Nc4ccccc4)cc3C(=O)N([C@@H](C)CO)C[C@@H]2C)cc1,inactive: 1.02
18,C[C@@H]1CCCCO[C@H](CN(C)Cc2ccc(C(=O)O)cc2)[C@H](C)CN([C@@H](C)CO)C(=O)c2cc(NC(=O)NC3CCCCC3)ccc2O1,inactive: 0.986
19,C[C@H]1CN([C@@H](C)CO)C(=O)Cc2cc(NC(=O)CCCCCC(=O)Nc3ccccc3N)ccc2O[C@H]1CN(C)S(C)(=O)=O,inactive: 0.974
20,C[C@H](CO)N1C[C@H](C)[C@@H](CN(C)Cc2ccncc2)Oc2ccc(NS(=O)(=O)c3cn(C)cn3)cc2CC1=O,inactive: 0.954
21,COc1ccc(S(=O)(=O)Nc2ccc3c(c2)CC(=O)N([C@@H](C)CO)C[C@@H](C)[C@@H](CN(C)C)O3)cc1,inactive: 1.02

row,Structure (SMILES),relative growth
1,CC(C)(C)c1ccc(OC[C@@H](O)CN)cc1,inactive: 1.04
2,Cn1cnc(S(=O)(=O)N2C[C@@H](O)COC[C@@H]3O[C@H](CC(=O)NCc4cc(F)cc(F)c4)CC[C@H]32)c1,inactive: 0.987
3,COc1ccc2c3c(n(c2c1)C)[C@H](CO)N(C[C@]13CN(CC2CCOCC2)C1)C(=O)c1ccc(cc1)F,inactive: 1
4,C[C@@H]1CCCCO[C@@H](CN(C)Cc2ccccc2)[C@@H](C)CN([C@@H](C)CO)C(=O)c2cc(NC(=O)Nc3ccccc3)ccc2O1,inactive: 1.01
5,CCCC(=O)Nc1ccc2c(c1)C(=O)N(C)[C@H]1CC[C@@H](CC(=O)NCCN3CCCCC3)O[C@H]1CO2,inactive: 0.987
6,C[C@H](CO)N1C[C@H](C)[C@H](CN(C)S(=O)(=O)c2ccc(F)cc2)Oc2ccc(NS(=O)(=O)c3cccs3)cc2C1=O,inactive: 0.971
7,C[C@@H]1CCCCO[C@@H](CN(C)C(=O)Nc2ccccc2)[C@@H](C)CN([C@H](C)CO)C(=O)c2cc(NS(=O)(=O)c3ccc(F)cc3)ccc2O1,inactive: 0.999
8,COC(=O)C[C@H]1CC[C@@H](N)[C@H](CO)O1,inactive: 0.999
9,O=C(C[C@@H]1C[C@H]2c3cc(NC(=O)Cc4ccncc4)ccc3O[C@H]2[C@@H](CO)O1)NCc1ccc2c(c1)OCO2,inactive: 1.02
10,Cc1noc(C)c1NC(=O)Nc1cccc2c1O[C@H](CN(C)S(=O)(=O)c1cn(C)cn1)[C@H](C)CN([C@H](C)CO)C2=O,inactive: 1.01
11,COCCC(=O)N1C[C@H]2CN(c3cnn(C)c3)C(=O)[C@@H]2C1,inactive: 1.04
12,COc1ccc(NC(=O)N(C)C[C@H]2OCCCC[C@@H](C)Oc3ccc(NC(=O)Nc4ccc(F)cc4)cc3C(=O)N([C@H](C)CO)C[C@@H]2C)cc1,inactive: 1.03
13,CC(=O)N[C@@H](Cc1ccccc1)C(=O)NN,inactive: 0.987
14,C[C@@H]1CCCCO[C@@H](CN(C)CC2CC2)[C@H](C)CN([C@@H](C)CO)C(=O)c2cc(NC(=O)Nc3ccc(C(F)(F)F)cc3)ccc2O1,inactive: 0.974
15,Cc1noc(C)c1NC(=O)Nc1ccc2c(c1)C(=O)N([C@H](C)CO)C[C@H](C)[C@@H](CN(C)C(=O)Nc1c(C)noc1C)OCCCC[C@@H](C)O2,inactive: 0.998
16,C[C@H](CO)N1C[C@H](C)[C@@H](CN(C)Cc2ccncc2)Oc2ccc(NC(=O)Nc3cccc4ccccc34)cc2C1=O,inactive: 0.987
17,Cc1noc(C)c1NC(=O)Nc1cccc2c1O[C@@H](CN(C)C(=O)Nc1cccc3ccccc13)[C@@H](C)CN([C@H](C)CO)C2=O,inactive: 0.985
18,O=C1N(Cc2ccccc2)Cc2ccccc2C[C@@]12N=C(c1ccc(OCCCO)cc1)O[C@H]2c1ccccc1,inactive: 0.994
19,CC(C)NC(=O)N(C)C[C@H]1Oc2ccc(NS(=O)(=O)c3cn(C)cn3)cc2C(=O)N([C@H](C)CO)C[C@H]1C,inactive: 1.02
20,CC(C)NC(=O)Nc1ccc2c(c1)C(=O)N([C@@H](C)CO)C[C@@H](C)[C@@H](CN(C)S(=O)(=O)c1cn(C)cn1)O2,inactive: 0.968
21,COc1cccc(S(=O)(=O)N(C)C[C@@H]2Oc3ncc(-c4cccc(F)c4)cc3C(=O)N([C@H](C)CO)C[C@@H]2C)c1,inactive: 1.01
